Source: US20090209520A1, “2 -OXYBENZAMIDE DERIVATIVES AS PARP INHIBITORS” (KUDOS PHARMACEUTICALS LIMITED, priority 2006, published 2009)

Biological target: Mammalian PARP, isolated from Hela cell nuclear extract (Homo sapiens, UniProt P09874)
Experiment: PARP inhibition assay (FlashPlate, 3H-NAD scintillation counting)
Type: biochemical
Settings: NAD 5 μM, 30° C., 45 minutes, read-out: IC50 (concentration at which 50% of the enzyme activity is inhibited)

IC50: < 2000 nM
Compound: CC(Oc1ccccc1)C(=O)N1CCN(C(=O)c2ccc(CCOc3ccccc3C(N)=O)cc2F)CC1 (stereo not shown) [Compound 11, 2-(2-{3-Fluoro-4-[4-(2-phenoxy-propionyl)-piperazine-1 carbonyl]-phenyl}-ethoxy)-benzamide]
